# Results reported in PubChem BioAssay (Tox21).
# Inconclusive results, whose numbers are uncertain, are shown with a selection of clear calls. For some of these results: No potency is given beside an inconclusive call; the fits are too rough. A structure can be active in one record and inactive in another. Activity calls are given as the source filed them. Unless noted, the call rests on the fitted dose curve; in most records, active means well fitted curve in the direction sought with a large enough effect in the repeat runs; inconclusive means weak or mixed curves; inactive means no such curve, though single readings can be large; an effect the other way counts as inactive or inconclusive.
# Assays:
# [1] = qHTS assay to identify small molecule antagonists of the TGF-beta/Smad signaling pathway - cell viability counter screen (AID 1346824); settings: SBE-bla HEK293T viability, CellTiter-Glo luminescence; series mostly up to 76.8 µM; further: nearly all actives have a fitted effect of over 50% in size; further: potency means the concentration at half of the fitted maximal effect
# Procedure, shortened: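 SBE-bla HEK 293T cells, incubated overnight, then compound plus 0.25 ng/mL TGF-beta1 (stock added) for 5 hr at 37 C. Viability was read in the same wells by CellTiter-Glo luminescence after 30 min at room temperature.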
# [2] = qHTS RealTime-Glo MT Cell Viability Assay in HepG2 cells - 24 hour (AID 1224867); settings: RealTime-Glo luminescence; series mostly up to 76.8 µM; further: nearly all actives have a fitted effect of over 50% in size; further: potency means the concentration at half of the fitted maximal effect
# Procedure, shortened: (§1)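 Real-time, nonlytic viability: 600 HepG2 cells/well mixed with NanoLuc enzyme plus prosubstrate; 5 h settle, compound (DMSO) added by pintool; luminescence monitored over 40 h at 37 C.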
# [3] = target: Acetylcholinesterase (Homo sapiens) (UniProt P22303); experiment: Acetylcholinesterase (AChE) small molecule antagonists: colormetric cell-based qHTS assay (AID 1347395; calls by dose curve; further: potency means the concentration at half of the fitted maximal effect; nearly all actives have a fitted effect of over 30% in size); settings: SH-SY5Y cells AChE activity, colorimetric (Ellman); series mostly up to 115 µM
# Procedure, shortened: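 SH-SY5Y cells attached overnight, exposed to compound 30 min at 37 C, then given DTNB/acetylthiocholine; after 90 min at 37 C, colorimetric thiocholine read gives cellular AChE activity.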
# [4] = target: Glucocorticoid receptor (Homo sapiens) (UniProt P04150); experiment: qHTS assay to identify small molecule agonists of the glucocorticoid receptor (GR) signaling pathway (AID 720691; active means well fitted activation curve with a large enough effect in the signal ratio in the repeat runs, not every such curve was filed as active; inconclusive means weak or mixed curves, or effect the other way; inactive means no such curve, though single readings can be large or run the other way; the % refers to the signal ratio; further: potency means the concentration at half of the fitted maximal effect; on activation: on the % scale 0 is the no-effect control and ±100 the full control effect); settings: GR-bla HeLa, beta-lactamase reporter ratio, 18 h; activation: at 62.4 µM (top of the series) unless noted
# Procedure, shortened: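 Beta-lactamase reporter activity, read as fluorescence intensity, was measured in GR-bla HeLa cells exposed to compounds for 18 h at 37 C and then loaded with LiveBLAzer B/G FRET substrate for 2 h at room temperature.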
# [5] = target: Vitamin D3 receptor (Homo sapiens) (UniProt P11473); experiment: qHTS assay to identify small molecule agonists of the vitamin D receptor (VDR) signaling pathway (AID 743222; calls by dose curve; further: potency means the concentration at half of the fitted maximal effect; on activation: on the % scale 0 is the no-effect control and ±100 the full control effect); settings: HEK293T VDR-UAS-bla, beta-lactamase FRET ratio, 16 h; activation: at 63.5 µM (top of the series) unless noted
# Procedure, shortened: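 Agonist activity measured in VDR-bla reporter cells. Exposure 16 h, 37C, 5% CO2; detection by B/G FRET substrate, 2 h RT.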
# [6] = A CellTox Green Cytotoxicity Assay to monitor cytotoxicity in HepG2 cells - 8 hour (AID 1224890); settings: CellTox Green fluorescence; series mostly up to 76.8 µM; further: potency means the concentration at half of the fitted maximal effect; nearly all actives have a fitted effect of over 45% in size
# Procedure, shortened: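 Continuous culture of HepG2 cells with a membrane-impermeant DNA dye; rising fluorescence marks dead cells. Compound exposure lasted up to 40 h at 37 C, with reads every 8 h from 0 h.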
# [7] = A CellTox Green Cytotoxicity Assay to monitor cytotoxicity in HEK293 cells - 8 hour (AID 1224884); settings: CellTox Green fluorescence; series mostly up to 76.8 µM; further: nearly all actives have a fitted effect of over 35% in size; further: potency means the concentration at half of the fitted maximal effect
# Procedure, shortened: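 Each value comes from one timepoint of a single continuous run in which HEK293 cells with CellTox Green were exposed to compound for up to 40 h at 37 C, dye fluorescence rising with cell death.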
# [8] = qHTS assay to identify small molecule agonists of the hypoxia (HIF-1) signaling pathway - cell viability counter screen (AID 1224844; calls by dose curve; further: nearly all actives have a fitted effect of over 50% in size; further: potency means the concentration at half of the fitted maximal effect); settings: HRE-bla ME-180 viability, CellTiter-Glo luminescence, 17 h; series mostly up to 76.8 µM
# Procedure, shortened: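 Luminescent ATP content (CellTiter-Glo, 30 min, room temperature) served as the viability measure in HRE-bla ME-180 cells exposed to compounds for 17 hrs in low-serum medium (0.5% dialyzed FBS).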
# [9] = Caspase-3/7 induction in HepG2 cells by small molecules, qHTS assay (AID 1346978); settings: HepG2 caspase-3/7 activation, Caspase-Glo luminescence, 17 h; series mostly up to 92.4 µM; further: nearly all actives have a fitted effect of over 15% in size; further: potency means the concentration at half of the fitted maximal effect
# Procedure, shortened: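 Wild-type HepG2 cells, 2,000/well, settled 5 hr at 37 C and 5% CO2, then compound-treated for 17 hr; caspase-3/7 activity read by luminescent Caspase-Glo 3/7 after 30 min at room temperature.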
# [10] = Caspase-3/7 induction in CHO-K1 cells by small molecules, qHTS assay (AID 1346980); settings: CHO-K1 caspase-3/7 induction, Caspase-Glo luminescence, 17 h; series mostly up to 92.4 µM; further: potency means the concentration at half of the fitted maximal effect; nearly all actives have a fitted effect of over 15% in size
# Procedure, shortened: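 Wild-type CHO-K1 cells exposed to compounds for 17hr at 37 C, 5% CO2. Caspase-3/7 activity then measured by Caspase-Glo 3/7 luminescence after 30min at room temperature.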
# [11] = qHTS assay for small molecule agonists of the p53 signaling pathway - cell viability (AID 651633; calls by dose curve; further: potency means the concentration at half of the fitted maximal effect; nearly all actives have a fitted effect of over 30% in size); settings: p53RE-bla HCT-116 viability, ATP luminescence, 16 h; series mostly up to 83.3 µM
# Procedure, shortened: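 p53RE-bla cells were treated with compound for 16 hours at 37 C. Cytotoxicity was then measured as CellTiter-Glo luminescence after 30 min at room temperature.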
# [12] = qHTS RealTime-Glo MT Cell Viability Assay in HepG2 cells - 40 hour (AID 1224870); settings: RealTime-Glo luminescence; series mostly up to 76.8 µM; further: potency means the concentration at half of the fitted maximal effect; nearly all actives have a fitted effect of over 50% in size
# Procedure, shortened: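 HepG2 cells (600/well) mixed with RealTime-Glo MT reagent, settled 5 h at 37 C/5% CO2 before compound addition. Nonlytic NanoLuc luminescence from viable-cell prosubstrate reduction read repeatedly during 40 h treatment at 37 C.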
# [13] = qHTS RealTime-Glo MT Cell Viability Assay in HepG2 cells - 16 hour (AID 1224885); settings: RealTime-Glo luminescence; series mostly up to 76.8 µM; further: nearly all actives have a fitted effect of over 50% in size; further: potency means the concentration at half of the fitted maximal effect
# Procedure, shortened: as §1
# [14] = qHTS assay to identify small molecule agonists or antagonists of the thyroid stimulating hormone receptor (TSHR) signaling pathway - wild type cell line counter screen (AID 1259384; calls by dose curve; further: on the % scale 0 is the no-effect control and ±100 the full control effect); settings: HEK293 wild type, cAMP HTRF counter-screen, active compounds read high
# Procedure, shortened: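 Wild-type Hek293 cells, 800/well, 18 h at 37C, then compound with Ro20-1724 for 30 min RT. cAMP by HTRF (cAMP-d2/anti-cAMP cryptate), 1 h RT, fluorescence read. 15 concentrations, triplicates.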
# [15] = target: Aryl hydrocarbon receptor (Homo sapiens) (UniProt P35869); experiment: qHTS assay to identify small molecule that activate the aryl hydrocarbon receptor (AhR) signaling pathway (AID 743085); settings: HepG2 AhR-luc (HG2L7.5c1), luciferase, 24 h; series mostly up to 70.3 µM; further: nearly all actives have a fitted effect of over 15% in size; further: potency means the concentration at half of the fitted maximal effect
# Procedure, shortened: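 HepG2 cells stably carrying a 20-DRE firefly luciferase reporter (HG2L7.5c1) treated with compound for 24 hr at 37C. Luciferase read by ONE-Glo luminescence, with CellTiter-Fluor viability read first.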
# [16] = qHTS assay to identify small molecule antagonists of the androgen receptor (AR) signaling pathway using the MDA cell line in the presence of 0.5 nM R1881 - cell viability counter screen (AID 1259242); settings: MDA-kb2 viability, CellTiter-Fluor protease fluorescence, 16 h; series mostly up to 92.4 µM; further: nearly all actives have a fitted effect of over 45% in size; further: potency means the concentration at half of the fitted maximal effect
# Procedure, shortened: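 Fluorescence from CellTiter-Fluor, which reports protease activity of live cells, was read 30 min after reagent addition to MDA-kb2 cells that had been incubated 16 hr with compound and 0.5 nM R1881.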
# [17] = qHTS assay to identify small molecule HDAC inhibitors (AID 1259364); settings: HCT-116 HDAC-Glo I/II luminescence, 2 h; series mostly up to 92.4 µM; further: potency means the concentration at half of the fitted maximal effect; nearly all actives have a fitted effect of over 45% in size
# Procedure, shortened: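 Endogenous HDAC class I/II activity was measured in wild-type HCT-116 cells by HDAC-Glo luminescence after 2 h compound treatment.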
# [18] = qHTS assay to identify small molecule agonists of the androgen receptor (AR) signaling pathway in the presence of an antagonist - cell viability counter screen (AID 1259379); settings: MDA-kb2 viability, CellTiter-Fluor, 16 h; series mostly up to 92.4 µM; further: nearly all actives have a fitted effect of over 25% in size; further: potency means the concentration at half of the fitted maximal effect
# Procedure, shortened: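 In MDA-kb2 cells (human breast carcinoma, MMTV-luciferase), compounds at 15 concentrations plus 3.0uM nilutamide; 16 hr, 37C, 0% CO2; CellTiter-Fluor fluorescence read for viability.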
# [19] = tested on: thyroid hormone receptor (rat, GH3 cells); experiment: qHTS assay to identify small molecule agonists of the thyroid receptor (TR) signaling pathway (AID 743066; calls by dose curve; further: on the % scale 0 is the no-effect control and ±100 the full control effect); settings: GH3.TRE-Luc cells, TR agonist luciferase, 24 h; activation: at 83.9 µM (top of the series) unless noted
# [20] = qHTS assay for small molecules that induce genotoxicity in human embryonic kidney cells expressing luciferase-tagged ATAD5 - cell viability (AID 651634; calls by dose curve; further: nearly all actives have a fitted effect of over 25% in size; further: potency means the concentration at half of the fitted maximal effect); settings: HEK293T ATAD5-luc cells viability, CellTiter-Fluor, 15.5 h; series mostly up to 83.3 µM
# Procedure, shortened: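 Live-cell protease activity (CellTiter-Fluor, fluorescence) indicates viability. HEK293T cells with luciferase-tagged ATAD5; 15.5 hr compound treatment at 37C.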
# Tags describe the fitted curve by direction and shape or compound fluorescence and quenching.
# Chain of UniProt P11473 (P11473 whole entry, looked up): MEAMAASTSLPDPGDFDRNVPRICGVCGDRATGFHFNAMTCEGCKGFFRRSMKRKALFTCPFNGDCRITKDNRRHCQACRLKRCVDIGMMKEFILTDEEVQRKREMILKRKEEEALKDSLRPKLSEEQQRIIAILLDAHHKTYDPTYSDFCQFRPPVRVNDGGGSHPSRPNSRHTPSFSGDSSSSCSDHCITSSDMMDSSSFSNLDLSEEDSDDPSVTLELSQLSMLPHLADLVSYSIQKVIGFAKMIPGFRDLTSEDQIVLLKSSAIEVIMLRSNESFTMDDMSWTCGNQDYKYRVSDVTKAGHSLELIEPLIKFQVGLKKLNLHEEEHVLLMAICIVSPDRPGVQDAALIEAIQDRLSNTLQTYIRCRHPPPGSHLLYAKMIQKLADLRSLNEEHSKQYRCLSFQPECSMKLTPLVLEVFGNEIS
# Chain of UniProt P35869 (P35869 whole entry, looked up): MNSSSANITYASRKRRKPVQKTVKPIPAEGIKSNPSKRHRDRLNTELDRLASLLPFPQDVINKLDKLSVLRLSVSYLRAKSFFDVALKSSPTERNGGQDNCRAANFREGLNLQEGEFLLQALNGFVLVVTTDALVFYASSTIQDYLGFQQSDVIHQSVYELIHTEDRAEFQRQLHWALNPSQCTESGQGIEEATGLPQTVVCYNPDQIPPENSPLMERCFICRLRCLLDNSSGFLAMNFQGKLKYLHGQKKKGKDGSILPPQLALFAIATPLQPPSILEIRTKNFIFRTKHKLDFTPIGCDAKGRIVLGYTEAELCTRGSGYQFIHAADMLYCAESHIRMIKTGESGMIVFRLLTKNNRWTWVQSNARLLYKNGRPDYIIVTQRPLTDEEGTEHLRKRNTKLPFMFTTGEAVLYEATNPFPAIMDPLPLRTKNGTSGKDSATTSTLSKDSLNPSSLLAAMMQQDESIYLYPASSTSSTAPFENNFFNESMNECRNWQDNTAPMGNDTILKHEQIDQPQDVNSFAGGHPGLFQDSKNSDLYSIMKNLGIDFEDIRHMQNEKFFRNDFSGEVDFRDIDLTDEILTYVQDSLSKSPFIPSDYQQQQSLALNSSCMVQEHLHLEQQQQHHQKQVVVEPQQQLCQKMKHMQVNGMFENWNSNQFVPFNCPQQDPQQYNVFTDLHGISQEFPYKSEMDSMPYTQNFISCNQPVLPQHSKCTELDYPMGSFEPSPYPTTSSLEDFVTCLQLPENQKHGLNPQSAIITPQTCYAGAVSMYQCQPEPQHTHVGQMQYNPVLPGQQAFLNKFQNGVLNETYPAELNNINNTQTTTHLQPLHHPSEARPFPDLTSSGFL
# Chain of UniProt P22303 (P22303 whole entry, looked up): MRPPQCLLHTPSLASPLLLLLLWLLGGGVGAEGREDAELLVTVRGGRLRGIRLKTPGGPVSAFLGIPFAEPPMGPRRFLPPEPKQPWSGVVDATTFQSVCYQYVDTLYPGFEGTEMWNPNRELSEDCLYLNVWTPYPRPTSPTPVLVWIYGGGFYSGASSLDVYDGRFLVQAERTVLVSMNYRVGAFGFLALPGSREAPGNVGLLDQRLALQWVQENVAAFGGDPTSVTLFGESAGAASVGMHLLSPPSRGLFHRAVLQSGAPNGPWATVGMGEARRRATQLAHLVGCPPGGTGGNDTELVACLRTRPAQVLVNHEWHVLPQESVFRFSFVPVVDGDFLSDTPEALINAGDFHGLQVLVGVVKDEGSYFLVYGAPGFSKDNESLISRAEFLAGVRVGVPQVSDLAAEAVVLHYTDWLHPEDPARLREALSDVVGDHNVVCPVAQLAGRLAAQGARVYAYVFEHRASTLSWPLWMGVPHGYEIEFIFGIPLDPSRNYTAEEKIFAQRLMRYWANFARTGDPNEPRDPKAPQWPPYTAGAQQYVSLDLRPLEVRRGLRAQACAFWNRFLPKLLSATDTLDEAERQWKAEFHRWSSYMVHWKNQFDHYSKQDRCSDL
# Chain of UniProt P04150 (P04150 whole entry, looked up): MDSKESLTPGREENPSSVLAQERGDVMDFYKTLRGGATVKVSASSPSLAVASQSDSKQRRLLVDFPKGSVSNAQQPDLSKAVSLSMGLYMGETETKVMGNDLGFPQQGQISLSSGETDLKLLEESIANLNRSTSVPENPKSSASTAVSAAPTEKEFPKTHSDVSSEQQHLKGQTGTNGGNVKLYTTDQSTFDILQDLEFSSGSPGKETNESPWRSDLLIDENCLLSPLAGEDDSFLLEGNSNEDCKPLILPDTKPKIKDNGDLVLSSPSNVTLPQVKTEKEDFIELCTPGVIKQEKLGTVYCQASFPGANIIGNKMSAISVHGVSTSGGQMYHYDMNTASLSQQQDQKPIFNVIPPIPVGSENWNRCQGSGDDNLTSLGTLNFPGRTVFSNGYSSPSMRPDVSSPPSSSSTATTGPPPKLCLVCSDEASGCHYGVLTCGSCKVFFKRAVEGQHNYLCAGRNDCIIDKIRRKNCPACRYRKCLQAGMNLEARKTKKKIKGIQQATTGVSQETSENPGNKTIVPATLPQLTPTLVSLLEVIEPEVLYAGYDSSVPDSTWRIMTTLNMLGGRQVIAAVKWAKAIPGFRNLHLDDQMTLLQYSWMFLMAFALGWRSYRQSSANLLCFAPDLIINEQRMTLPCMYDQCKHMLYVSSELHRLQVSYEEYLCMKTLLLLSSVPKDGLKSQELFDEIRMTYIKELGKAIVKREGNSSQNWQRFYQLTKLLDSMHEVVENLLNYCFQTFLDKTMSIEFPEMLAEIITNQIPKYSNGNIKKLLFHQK
smiles,measurement,setting,value
C[C@]12CC[C@H](O)C[C@H]1CC[C@@H]1[C@@H]2C[C@@H](O)[C@]2(C)[C@@H](C3=CC(=O)OC3)CC[C@]12O,Potency,[1],"inconclusive [cytotoxic, full curve, poor fit]"
CCOP(=S)(OCC)SCCS(=O)(=O)CC,Potency,[2],inactive
same,Potency,[3],active: 35.6 µM
C[N+]1(CCF)[C@@H]2CC[C@H]1CC(OC(=O)C(O)(c1ccccc1)c1ccccc1)C2 (stereo partly drawn),Potency,[4],inactive
CC1(C(=O)Nc2ccc(O)c(Cl)c2Cl)CCCCC1,Potency,[5],inactive
same,Potency,[6],"inconclusive [activator, single point]"
C[C@H]1[C@@H]2Cc3ccc(O)cc3[C@@]1(C)CCN2C,Potency,[7],inactive
same,Potency,[3],active: 15.2 µM
c1cc[c]([Sb]([c]2ccccc2)[c]2ccccc2)cc1,Potency,[8],inactive
same,Potency,[9],"inconclusive [activator, partial curve, poor fit]"
same,Potency,[10],"inconclusive [activator, single point]"
CC[n+]1c(-c2ccccc2)c2cc(N)ccc2c2ccc(N)cc21,Potency,[11],"inconclusive [cytotoxic, single point]"
same,Potency,[12],"inconclusive [falling, single point]"
same,Potency,[13],"inconclusive [cytotoxic, partial curve]"
same,cAMP activity change,[14]; at 42.5 µM (top of the series),inconclusive: -26.1%
same,cAMP activity change,[14]; at 92.4 µM (top of the series),inconclusive: -10.1%
CCOP(=S)(OCC)SCS(=O)(=O)CC,Potency,[1],"inconclusive [cytotoxic, single point]"
CC1=NNC(=O)N(/N=C/c2cccnc2)C1,Potency,[9],inactive
CCN(CC)C(C)C(=O)c1ccccc1 (stereo not drawn),Potency,[15],inactive
CNC(=O)Oc1cc(C)c(N(C)C)c(C)c1,Potency,[15],inconclusive [activator]
O=C1C=CC(=O)c2ccccc21,Potency,[2],active: 21.9 µM
same,Potency,[6],active: 15.5 µM
same,Potency,[16],active: 30.6 µM
same,Potency,[17],"inconclusive [inhibitor, partial curve]"
same,Potency,[18],active: 43.3 µM
same,cAMP activity change,[14]; at 92.4 µM (top of the series),inconclusive: 0.891%
same,Potency,[1],active: 24.5 µM
N#CC(Cl)(Cl)Cl,Potency,[2],inactive
OCC(Br)CBr (stereo not drawn),Potency,[19],inactive
COC1=CC(=O)O[C@@H](/C=C/c2ccc3c(c2)OCO3)C1,Potency,[5],"inconclusive [rising, single point]"
same,Potency,[18],inactive
O=S(=O)(NS(=O)(=O)C(F)(F)F)C(F)(F)F,Potency,[16],"inconclusive [cytotoxic, full curve]"
CC(Cl)(Cl)[N+](=O)[O-],Potency,[15],inactive
CC(=O)[C@H]1CC[C@H]2[C@@H]3CC[C@H]4C[C@H](O)CC[C@]4(C)[C@H]3C(=O)C[C@]12C,Potency,[8],"inconclusive [cytotoxic, partial curve, poor fit]"
CN(C)CCN(C)C,Potency,[8],inactive
same,Potency,[2],inactive
COS(=O)(=O)c1ccc(C)cc1,Potency,[13],inactive
c1ccc(Nc2ccc(Nc3ccccc3)cc2)cc1,Potency,[15],"inconclusive [activator, partial curve]"
same,Potency,[5],inactive
same,Potency,[7],"inconclusive [activator, single point]"
CC1=C(C(=O)Nc2ccccc2)S(=O)(=O)CCO1,Potency,[20],"inconclusive [falling, partial curve, poor fit]"
same,Potency,[5],"inconclusive [rising, partial curve]"
same,Potency,[12],"inconclusive [falling, partial curve, poor fit]"
O=P(Cl)(Cl)Cl,Potency,[7],inactive
[O]=[Cd],Potency,[16],inactive
CC(C)C(C)(N)C#N (stereo not drawn),Potency,[15],inactive
CCc1cc(C)cc(CC)c1-c1c(OC(=O)C(C)(C)C)n2n(c1=O)CCOCC2,Potency,[2],inactive
same,Potency,[18],"inconclusive [cytotoxic, partial curve]"
COc1cccc2c1cc([N+](=O)[O-])c1c(C(=O)O)cc3c(c12)OCO3,Potency,[20],inconclusive
same,Potency,[4],inconclusive [inhibitor]
same,Potency,[15],"inconclusive [activator, partial curve, poor fit]"
same,Potency,[16],"inconclusive [cytotoxic, partial curve]"
same,Potency,[10],active: 9.69 µM
C1CC2OC2CC1C1CO1 (stereo not drawn),Potency,[20],inactive
same,activation,[19],inconclusive: 2.44% [phenotype inactive]
CCOC(=O)NC(O)C(Cl)(Cl)Cl (stereo not drawn),Potency,[1],inactive
ClC(Cl)=C(c1ccc(Cl)cc1)c1ccccc1Cl,Potency,[7],"inconclusive [activator, single point]"
same,Potency,[16],inactive
